Measurements from the supplement of paper PMC11876631.
± gives the standard deviation of the averaged measurements. Laboratory Escherichia coli strains with one amino-acid change in an essential protein, pooled on minimal glucose agar with carbenicillin or gentamicin at twice the control MIC (plus kanamycin and chloramphenicol for the plasmids), 48 h. Fold change of barcode share against drug-free plates; higher = less susceptible. Active = above 20 in both replicates (the paper's putatively resistant). '<' = one read or none on drug, '>' = one read or none on a drug-free plate. Shares are relative, so most strains fall below 1 when a few take over. Listed are strains with at least 15 reads on both drug-free plates, and hits; most hits rest on fewer reference reads. Replicate rank correlation about 0.5. Edits are read from barcodes.

B1: glnA; numbered along this chain (parent)
chain: MSAEHVLTMLNEHEVKFVDLRFTDTKGKEQHVTIPAHQVNAEFFEEGKMFDGSSIGGWKGINESDMVLMPDASTAVIDPFFADSTLIIRCDILEPGTLQGYDRDPRSIAKRAEDYLRSTGIADTVLFGPEPEFFLFDDIRFGSSISGSHVAIDDIEGAWNSSTQYEGGNKGHRPAVKGGYFPVPPVDSAQDIRSEMCLVMEQMGLVVEAHHHEVATAGQNEVATRFNTMTKKADEIQIYKYVVHNVAHRFGKTATFMPKPMFGDNGSGMHCHMSLSKNGVNLFAGDKYAGLSEQALYYIGGVIKHAKAINALANPTTNSYKRLVPGYEAPVMLAYSARNRSASIRIPVVSSPKARRIEVRFPDPAANPYLCFAALLMAGLDGIKNKIHPGEAMDKNLYDLPPEEAKEIPQVAGSLEEALNELDLDREFLKAGGVFTDEAIDAYIALRREEDDRVRMTPHPVEFELYYSV
B2: waaA; numbered along this chain (parent)
chain: MLELLYTALLYLIQPLIWIRLWVRGRKAPAYRKRWGERYGFYRHPLKPGGIMLHSVSVGETLAAIPLVRALRHRYPDLPITVTTMTPTGSERVQSAFGKDVQHVYLPYDLPDALNRFLNKVDPKLVLIMETELWPNLIAALHKRKIPLVIANARLSARSAAGYAKLGKFVRRLLRRITLIAAQNEEDGARFVALGAKNNQVTVTGSLKFDISVTPQLAAKAVTLRRQWAPHRPVWIATSTHEGEESVVIAAHQALLQQFPNLLLILVPRHPERFPDAINLVRQAGLSYITRSSGEVPSTSTQVVVGDTMGELMLLYGIADLAFVGGSLVERGGHNPLEAAAHAIPVLMGPHTFNFKDICARLEQASGLITVTDATTLAKEVSSLLTDADYRSFYGRHAVEVLYQNQGALQRLLQLLEPYLPPKTH
B3: hisC; numbered along this chain (parent)
chain: MSTVTITDLARENVRNLTPYQSARRLGGNGDVWLNANEYPTAVEFQLTQQTLNRYPECQPKAVIENYAQYAGVKPEQVLVSRGADEGIELLIRAFCEPGKDAILYCPPTYGMYSVSAETIGVECRTVPTLDNWQLDLQGISDKLDGVKVVYVCSPNNPTGQLINPQDFRTLLELTRGKAIVVADEAYIEFCPQASLAGWLAEYPHLAILRTLSKAFALAGLRCGFTLANEEVINLLMKVIAPYPLSTPVADIAAQALSPQGIVAMRERVAQIIAEREYLIAALKEIPCVEQVFDSETNYILARFKASSAVFKSLWDQGIILRDQNKQPSLSGCLRITVGTREESQRVIDALRAEQV

Variants of: B1
Assay: barcode share on antibiotic plates over drug-free plates; higher = less susceptible
Conditions: with Escherichia coli (laboratory strain); antibiotic: carbenicillin; 2× MIC (3.1 µg/mL)
Description: (§1)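 A pool of E. coli strains, each edited to carry one amino-acid change in an essential protein, was grown for 48 h on minimal glucose agar with or without antibiotic; strain barcodes were sequenced; mean of two replicates.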

| Variant | fold change of barcode share |
| --- | --- |
| L375Q | 0.329 ± 0.086 |

Same assay, conditions: with Escherichia coli (laboratory strain); antibiotic: gentamicin; 2× MIC (MIC 0.45 µg/mL)

| Variant | fold change of barcode share |
| --- | --- |
| L375Q | < 0.00313 |
| L376P | < 0.0143 |

Variants of: B2
Assay: as above
Conditions: with Escherichia coli (laboratory strain); antibiotic: carbenicillin; 2× MIC (3.1 µg/mL)
Description: as §1

| Variant | fold change of barcode share |
| --- | --- |
| L53A | 0.499 ± 0.42 |
| I369A | 0.272 ± 0.021 |
| V248P | 0.227 ± 0.016 |
| I138D | 0.265 ± 0.09 |
| V267P | 0.166 ± 0.033 |
| I138A | 0.354 ± 0.064 |
| V170Q | 0.195 ± 0.018 |
| V170W | 0.483 ± 0.2 |
| I369W | 0.527 ± 0.45 |
| I138Q | 0.373 ± 0.24 |
| L53W | 0.458 ± 0.22 |
| F169A | 0.267 ± 0.0077 |
| L53Q | 0.341 ± 0.13 |
| V248Q | 1.96 ± 2.4 |
| V170D | 0.743 ± 0.24 |
| F169Q | 0.324 ± 0.065 |
| I369D | 0.587 ± 0.07 |
| F169W | 0.281 ± 0.021 |
| I369Q | 0.301 ± 0.059 |
| V248A | 0.28 ± 0.045 |
| F169D | 0.397 ± 0.17 |
| V170A | 0.544 ± 0.42 |
| V170P | 0.291 ± 0.2 |

Same assay, conditions: with Escherichia coli (laboratory strain); antibiotic: gentamicin; 2× MIC (MIC 0.45 µg/mL)

| Variant | fold change of barcode share |
| --- | --- |
| L53A | < 0.00846 |
| I369A | 0.00802 ± 0.0016 |
| V248P | 0.00355 ± 0.00041 |
| I138D | 0.471 ± 0.65 |
| V267P | < 0.00868 |
| I138A | < 0.0056 |
| V170Q | 0.004998 ± 7.9e-06 |
| V170W | < 0.00441 |
| I369W | 0.00351 ± 0.0017 |
| I138Q | < 0.0115 |
| L53W | < 0.00697 |
| F169A | < 0.00577 |
| L53Q | < 0.00954 |
| V248Q | 0.0518 ± 0.026 |
| V170D | < 0.00291 |
| F169Q | < 0.012 |
| I369D | 0.00606 ± 0.0044 |
| F169W | < 0.00596 |
| I369Q | 0.0041 ± 0.003 |
| V248A | 0.00368 ± 0.002 |
| F169D | < 0.0129 |
| V170A | < 0.0109 |
| V170P | 0.013 ± 0.0045 |
| F169P | < 0.0133 |
| V248D | 0.00259 ± 0.0013 |
| V267A | < 0.0104 |
| V267W | 0.0203 ± 0.00049 |

Variants of: B3
Assay: as above
Conditions: with Escherichia coli (laboratory strain); antibiotic: carbenicillin; 2× MIC (3.1 µg/mL)
Description: as §1

| Variant | fold change of barcode share |
| --- | --- |
| I92A | 0.52 ± 0.15 |

Same assay, conditions: with Escherichia coli (laboratory strain); antibiotic: gentamicin; 2× MIC (MIC 0.45 µg/mL)

| Variant | fold change of barcode share |
| --- | --- |
| I92A | 0.00818 ± 0.0036 |
